# According to paper PMC6919601, “Identification of Plasmodium dipeptidyl aminopeptidase allosteric inhibitors by high throughput screening” (PLoS ONE, 2019):
# Out of some 110,000 compounds screened, about 230 (0.21%) showed an effect of 50% or more. The list shows a part of the results.
# Molecular target: DPAP1 (Plasmodium falciparum, UniProt Q8IIJ9)
# Assay: primary screen, percent inhibition; read by cleavage of a fluorogenic dipeptide substrate; higher = more effect of the substance
# Set-up: species or system P. falciparum D10 trophozoite lysates; single well
# 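Note: 30 min substrate incubation versus DMSO and 10 µM JCP410 controls.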
# Sequence of DPAP1 (Q8IIJ9 whole entry, looked up): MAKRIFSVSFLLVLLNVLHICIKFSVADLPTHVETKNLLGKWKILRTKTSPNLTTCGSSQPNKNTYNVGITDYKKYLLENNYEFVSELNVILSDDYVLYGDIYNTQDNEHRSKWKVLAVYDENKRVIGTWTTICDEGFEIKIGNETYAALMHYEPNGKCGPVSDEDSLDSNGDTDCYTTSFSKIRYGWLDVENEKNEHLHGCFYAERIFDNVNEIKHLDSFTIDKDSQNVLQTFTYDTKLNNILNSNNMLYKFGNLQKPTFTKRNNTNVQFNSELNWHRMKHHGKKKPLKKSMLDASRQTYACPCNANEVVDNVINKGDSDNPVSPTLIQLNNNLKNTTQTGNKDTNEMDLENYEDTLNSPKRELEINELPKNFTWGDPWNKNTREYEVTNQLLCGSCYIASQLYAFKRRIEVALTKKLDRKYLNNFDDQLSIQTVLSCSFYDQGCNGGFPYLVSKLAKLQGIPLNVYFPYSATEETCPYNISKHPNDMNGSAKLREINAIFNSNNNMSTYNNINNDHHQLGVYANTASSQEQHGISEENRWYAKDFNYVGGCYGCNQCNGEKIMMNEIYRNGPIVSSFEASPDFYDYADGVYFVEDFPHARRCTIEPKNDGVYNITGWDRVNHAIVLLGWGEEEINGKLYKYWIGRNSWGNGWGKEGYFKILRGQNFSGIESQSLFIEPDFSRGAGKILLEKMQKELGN
row,Structure (SMILES),% Inhibition @ 10 uM
1,COC(=O)c1cc2occc2[nH]1,-0.406%
2,O=C(NCCOc1ccccc1)c1ccccc1NC(=O)c1ccccc1C(F)(F)F,-2.09%
3,CCOc1ccccc1CN1CCN(c2ccccc2F)CC1,5.37%
4,Cc1ccc(-c2c(C(=O)N3CCCCC3C)oc(=O)c3ccccc23)cc1 (stereo not drawn),-1.54%
5,Cc1ccc(S(=O)Cc2nc(-c3ccc(C(=O)NCCc4ccccc4)cc3)oc2C)cc1 (stereo not drawn),-6.5%
6,COc1cccc(NC(=O)CN(c2c(C)cccc2C)S(C)(=O)=O)c1,0.214%
7,Cc1cc(Cl)ccc1OCC(=O)Nc1ccc(C(N)=O)cc1,-4.66%
8,CCc1ccc(S(=O)(=O)c2nnn3c2nc(NCc2ccc(F)cc2)c2sccc23)cc1,-7.14%
9,CCCNC(=O)c1nc2ncc(Br)cn2n1,-2.36%
10,CCN1CCC(C#N)(NC(=O)[C@H](Cc2c(F)cc(OC)cc2F)NC(=O)c2ccc(-c3ccccc3Cl)nc2)CC1,-1.7%
11,O=C1CC2CS(=O)(=O)CC2N1c1cccc(C(F)(F)F)c1 (stereo not drawn),-1.28%
12,CCOc1ccc(C2CC(c3ccc(OC(F)F)cc3)n3nnnc3N2)cc1Cl (stereo not drawn),0.0842%
13,CCc1[nH]nc2c1C(c1ccncc1)C(C#N)=C(N)O2 (stereo not drawn),-5.96%
14,CC[C@H](C)[C@H](NC(=O)c1cccc(CN)c1)C(=O)N[C@@H](C)C(=O)CO,2.22%
15,Cc1cc(O)nc(SCC(=O)NCCc2ccc(Cl)cc2)n1,0.9%
16,Cc1ccc(C2N3CC4(C)CN2CC(C)(C3)C4)cc1 (stereo not drawn),-0.289%
17,Cc1ccc2nc(N(CCCN(C)C)C(=O)c3cccs3)sc2c1,2.01%
18,Cc1cc(C#N)c(SCC(N)=O)nc1-c1ccc(F)cc1,1.57%
19,Cc1ccc(C(=O)Nc2ccccc2C)cc1,3%
20,CC(NC(=O)c1ccccc1C(=O)O)c1ccccc1 (stereo not drawn),0.878%
21,CCCN(CCC)CCNC(=O)CS(=O)(=O)Cc1nc(-c2cccc(OC)c2)oc1C,-5.58%

row,Structure (SMILES),% Inhibition @ 10 uM
1,Cc1cc2c(cc3c(=O)n(CC(=O)NCCN4CCOCC4)ncn32)s1,0.0198%
2,CCOc1ccc2nc(NC(=O)c3ccc(C)cc3)sc2c1,-2.19%
3,CNS(=O)(=O)c1cn(CC(=O)NCCC(C)C)cc1S(=O)(=O)NC,-11.4%
4,Cc1nc(-n2cccc2)sc1C(=O)NCCc1ccccc1,5.73%
5,O=S(=O)(c1ccc(O)cc1)c1ccc(O)c(C23CC4CC(CC(C4)C2)C3)c1,-0.0369%
6,O=C(NCc1ccc(F)cc1)C1CCN(c2cnccn2)CC1,-2.71%
7,CC(CN(C)Cc1ccccc1)OC(=O)c1ccc2c(c1)OCCO2 (stereo not drawn),-5.51%
8,Cc1nn2c3ccccc3nc2n1C,5.45%
9,CC1(C)C=C(N2CCNCC2)CC(C)(C)N1,0.162%
10,Cc1ccc2c(nc3s/c(=C/c4ccccc4F)c(=O)n32)c1C,8.12%
11,CCC(=O)N1CCN(c2cc(N3CCC(C)CC3)c(F)cc2[N+](=O)[O-])CC1,1%
12,O=C1CN(CCc2ccccc2)CC(=O)N1CCc1ccccc1,-6.83%
13,C#CCN1C(=O)S/C(=C/c2cc(C)n(-c3ccccn3)c2C)C1=O,-3.78%
14,C/C(=N/N=C(N)N)c1cccc(-n2cnnn2)c1,1.46%
15,C=CCn1c(SCC(=O)Nc2ccc(OC)cc2)nc2sc3c(c2c1=O)CCC3,5.97%
16,COc1cc(OC)c(OC)cc1/C=C1\SC(N2CCCC2)=NC1=O,3.59%
17,COc1ccc(NOc2ccccc2)cc1,-6.18%
18,C=CCOc1cccc(C2c3c(oc4ccccc4c3=O)C(=O)N2c2nc(C)c(C(C)=O)s2)c1 (stereo not drawn),2.16%
19,CC1CN(C2=NC(=O)/C(=C\c3ccc(Br)cc3)S2)CC(C)O1 (stereo not drawn),7.39%
20,COc1ccc(NC2=CC(c3cccc(OC)c3)N(c3ccc(OC)cc3)C2=O)cc1 (stereo not drawn),1.96%
21,C=CCN1C(=O)NC(=O)/C(=C/c2ccc(OCC(=O)O)c(OCC)c2)C1=O,1.58%

row,Structure (SMILES),% Inhibition @ 10 uM
1,Cc1cc(C)c2c(CC(=O)N(Cc3ccc(Cl)cc3)C3CCS(=O)(=O)C3)coc2c1 (stereo not drawn),3.99%
2,Fc1ccc(-c2noc3ncnc(N4CC=C(c5ccccc5)CC4)c23)cc1,-4.78%
3,O=C(CN(C1CCCCC1)S(=O)(=O)c1ccc(Cl)cc1)NC1CCCC1,-0.553%
4,CCCOc1ccc(C(=O)Nc2cccnc2)cc1,1.25%
5,O=C(Cn1c(SCc2cccc(F)c2)nc2ccncc21)NCc1ccco1,1.03%
6,CCOc1ccc2nc(NC3=NCN(Cc4ccccc4)CN3)nc(C)c2c1,5.3%
7,Cc1cccc(NC(=O)C23CCC(C)(C(O)C2)C3(C)C)n1 (stereo not drawn),2.08%
8,Cc1nc2ccc(S(=O)(=O)NC(C(=O)NCc3ccc4c(c3)OCO4)C(C)C)cc2s1 (stereo not drawn),-3.45%
9,CC(C)c1ccc(C2CC(=O)NC(SCC(N)=O)=C2C#N)cc1 (stereo not drawn),0.851%
10,COc1ccc(C2c3c(oc4ccccc4c3=O)C(=O)N2c2nccs2)cc1OC (stereo not drawn),-7.17%
11,CS(=O)(=O)N(CC(=O)N1CCOCC1)c1ccc(Cl)c(C(F)(F)F)c1,4.49%
12,CC1CCN(c2c(NCc3ccc(C(=O)N4CC(C)CC(C)C4)cc3)c(=O)c2=O)CC1 (stereo not drawn),2.76%
13,CCOc1ccc(S(=O)(=O)Nc2ccc(-c3cn4ccsc4n3)cc2)cc1,6.24%
14,COc1ccc(CN2CCN(Cc3ccncc3)CC2)c(OC)c1,3.08%
15,CC(=O)c1c(O)cc(C)o/c1=N\c1ccc(O)cc1,-4.49%
16,CCc1nnc(NC(=O)CSc2nc3c(c(=O)n2CC)SCC3)s1,-4.16%
17,CNc1ccc(C(=O)N[C@@H](CC(C)C)C(=O)NCC#N)cc1[N+](=O)[O-],-0.207%
18,CCOc1ccc(CNc2nc3nc(C)cc(O)n3n2)cc1,-4.19%
19,C=C(C)COc1ccc2c3c(c(=O)oc2c1C)CCCC3,-2.13%
20,CCOc1ccc(C2CC3=NC(C)=C(C(=O)OCCOC)C(c4cccs4)C3=C(O)C2)cc1OC (stereo not drawn),-2.98%
21,CCCOc1cccc(C2c3c(oc4ccc(F)cc4c3=O)C(=O)N2c2cc(C)ccn2)c1 (stereo not drawn),-5.38%
